Measurements as given in patent publication US11420968B2 (priority 2018, dated 2022).
Read-outs that look alike come from different tables or passages of the source.

Key:
RS4;11 cells = test: cells; settings: Homo sapiens
Molt-4 cells = test: cells; settings: Homo sapiens
[1] = RS4-11, 48 h, read-out: Cellular activity (IC50, nM) RS4;11
[2] = RS4-11, read-out: Celluclar activity (IC50, nM) RS 4, 11
[3] = MOLT-4, read-out: Celluclar activity (IC50, nM) Molt-4
[4] = MOLT-4, read-out: Cellular activity (IC50, nM) Molt-4
[5] = RS4-11, 48 h, read-out: Cellular activity (IC50, nM) RS4, 11

Row | SMILES | IC50 (RS4;11 cells; [1]) | IC50 (RS4;11 cells; [2]) | IC50 (Molt-4 cells; [3]) | IC50 (Molt-4 cells; [4]) | IC50 (RS4;11 cells; [5])
1 | Nc1ncc(Oc2cc(N3CCC4(CC3)CC(N3CCC[C@H]3c3ccccc3C3CC3)C4)ccc2C(=O)NS(=O)(=O)c2ccc(NCC3CCOCC3)c([N+](=O)[O-])c2)cc1Cl [Example F126, (S)-2-((6-amino-5-chloropyridin-3-yl)oxy)-4-(2-(2-(2-cyclopropylphenyl)pyrrolidin-1-yl)-7-azaspiro[3.5]nonan-7-yl)-N-((3-nitro-4-(((tetrahydro-2H-pyran-4-yl)methyl)amino)phenyl)sulfonyl)benzamide] | 7.5 nM | 7.5 nM | > 10000 nM | > 10000 nM | 
2 | CC1(C)CC(CNc2ccc(S(=O)(=O)NC(=O)c3ccc(N4CCC5(CC4)CC(N4CCC[C@H]4c4ccccc4C4CC4)C5)cc3Oc3cnc4[nH]ccc4c3)cc2[N+](=O)[O-])CCO1 (stereo partly drawn) [Example F127, 2-((1H-pyrrolo[2,3-b]pyridin-5-yl)oxy)-4-(2-((S)-2-(2-cyclopropylphenyl)pyrrolidin-1-yl)-7-azaspiro[3.5]nonan-7-yl)-N-((4-(((2,2-dimethyltetrahydro-2H-pyran-4-yl)methyl)amino)-3-nitrophenyl)sulfonyl)benzamide] | 2.1 nM |  |  | 1790 nM | 
3 | CN(CC1CCOCC1)C(=O)Nc1ccc(S(=O)(=O)NC(=O)c2ccc(N3CCC4(CC3)CC(N3CCC[C@H]3c3ccccc3C3CC3)C4)cc2Oc2cnc3[nH]ccc3c2)cc1[N+](=O)[O-] [Example F128, (S)-2-((1H-pyrrolo[2,3-b]pyridin-5-yl)oxy)-4-(2-(2-(2-cyclopropylphenyl)pyrrolidin-1-yl)-7-azaspiro[3.5]nonan-7-yl)-N-((4-(3-methyl-3-((tetrahydro-2H-pyran-4-yl)methyl)ureido)-3-nitrophenyl)sulfonyl)benzamide] | 7.8 nM |  |  | 1810 nM | 
4 | C[C@]1(O)CC[C@H](CNc2ccc(S(=O)(=O)NC(=O)c3ccc(N4CCC5(CC4)CC(N4CCC[C@H]4c4ccccc4)C5)cc3Oc3cnc4[nH]ccc4c3)cc2[N+](=O)[O-])CC1 [Example F129, 2-((1H-pyrrolo[2,3-b]pyridin-5-yl)oxy)-N-((4-((((1r,4r)-4-hydroxy-4-methylcyclohexyl)methyl)amino)-3-nitrophenyl)sulfonyl)-4-(2-((S)-2-phenylpyrrolidin-1-yl)-7-azaspiro[3.5]nonan-7-yl)benzamide] | 29 nM |  |  | > 10000 nM | 
5 | CCN1CCN(C2CC3(CCN(c4ccc(C(=O)NS(=O)(=O)c5ccc(NCC6CCOCC6)c([N+](=O)[O-])c5)c(Oc5cnc6[nH]ccc6c5)c4)CC3)C2)C(c2ccccc2C2CC2)C1 (stereo not drawn) [Example F130, 2-((1H-pyrrolo[2,3-b]pyridin-5-yl)oxy)-4-(2-(2-(2-cyclopropylphenyl)-4-ethylpiperazin-1-yl)-7-azaspiro[3,5]nonan-7-yl)-N-((3-nitro-4-(((tetrahydro-2H-pyran-4-yl)methyl)amino)phenyl)sulfonyl)benzamide] | 0.5 nM | 0.5 nM | 7350 nM | 7350 nM | 
6 | O=C(NS(=O)(=O)c1ccc(OCC2(F)CCOCC2)c([N+](=O)[O-])c1)c1ccc(-c2ccc(N3CCCC3c3ccccc3Cl)cc2)cc1Oc1cnc2[nH]ccc2c1 (stereo not drawn) [Example G1, 3-((1H-pyrrolo[2,3-b]pyridin-5-yl)oxy)-4′-(2-(2-chlorophenyl)pyrrolidin-1-yl)-N-((4-((4-fluorotetrahydro-2H-pyran-4-yl)methoxy)-3-nitrophenyl)sulfonyl)-[1,1′-biphenyl]-4-carboxamide] |  |  |  | 6770 nM | 88 nM
7 | O=C(NS(=O)(=O)c1ccc(OCC2(F)CCOCC2)c([N+](=O)[O-])c1)c1ccc(C2=CCC(N3CCCC3c3ccccc3C3CC3)CC2)cc1Oc1cnc2[nH]ccc2c1 (stereo not drawn) [Example G1C, 3-((1H-pyrrolo[2,3-b]pyridin-5-yl)oxy)-4′-(2-(2-cyclopropylphenyl)pyrrolidin-1-yl)-N-((4-((4-fluorotetrahydro-2H-pyran-4-yl)methoxy)-3-nitrophenyl)sulfonyl)-2′,3′,4′,5′-tetrahydro-[1,1′-biphenyl]-4-carboxamide] |  |  |  | 5160 nM | 37 nM
8 | CN1CCC(CNc2ccc(S(=O)(=O)NC(=O)c3ccc(-c4ccc(N5CCCC5c5ccccc5Cl)cc4)cc3Oc3cnc4[nH]ccc4c3)cc2[N+](=O)[O-])CC1 (stereo not drawn) [Example G2, 3-((1H-pyrrolo[2,3-b]pyridin-5-yl)oxy)-4′-(2-(2-chlorophenyl)pyrrolidin-1-yl)-N-((4-(((1-methylpiperidin-4-yl)methyl)amino)-3-nitrophenyl)sulfonyl)-[1,1′-biphenyl]-4-carboxamide] |  |  |  | 8170 nM | 208 nM
9 | O=C(NS(=O)(=O)c1ccc(NC2CN(C3CCOCC3)C2)c([N+](=O)[O-])c1)c1ccc(-c2ccc(N3CCCC3c3ccccc3Cl)cc2)cc1Oc1cnc2[nH]ccc2c1 (stereo not drawn) [Example G3, 3-((1H-pyrrolo[2,3-b]pyridin-5-yl)oxy)-4′-(2-(2-chlorophenyl)pyrrolidin-1-yl)-N-((3-nitro-4-((1-(tetrahydro-2H-pyran-4-yl)azetidin-3-yl)amino)phenyl)sulfonyl)-[1,1′-biphenyl]-4-carboxamide] |  |  |  | > 10000 nM | 455 nM
10 | O=C(NS(=O)(=O)c1ccc(NC2CCN(C3COC3)CC2)c([N+](=O)[O-])c1)c1ccc(-c2ccc(N3CCCC3c3ccccc3Cl)cc2)cc1Oc1cnc2[nH]ccc2c1 (stereo not drawn) [Example G4, 3-((1H-pyrrolo[2,3-b]pyridin-5-yl)oxy)-4′-(2-(2-chlorophenyl)pyrrolidin-1-yl)-N-((3-nitro-4-((1-(oxetan-3-yl)piperidin-4-yl)amino)phenyl)sulfonyl)-[1,1′-biphenyl]-4-carboxamide] |  |  |  | > 10000 nM | 241 nM
11 | O=C(NS(=O)(=O)c1ccc(NCC2(O)COC2)c([N+](=O)[O-])c1)c1ccc(-c2ccc(N3CCCC3c3ccccc3Cl)cc2)cc1Oc1cnc2[nH]ccc2c1 (stereo not drawn) [Example G5, 3-((1H-pyrrolo[2,3-b]pyridin-5-yl)oxy)-4′-(2-(2-chlorophenyl)pyrrolidin-1-yl)-N-((4-(((3-hydroxyoxetan-3-yl)methyl)amino)-3-nitrophenyl)sulfonyl)-[1,1′-biphenyl]-4-carboxamide] |  |  |  | 4700 nM | 197 nM
12 | O=C(NS(=O)(=O)c1ccc(OCC2CCC(O)CC2)c([N+](=O)[O-])c1)c1ccc(-c2ccc(N3CCCC3c3ccccc3Cl)cc2)cc1Oc1cnc2[nH]ccc2c1 (stereo not drawn) [Example G6, 3-((1H-pyrrolo[2,3-b]pyridin-5-yl)oxy)-4′-(2-(2-chlorophenyl)pyrrolidin-1-yl)-N-((4-((4-hydroxycyclohexyl)methoxy)-3-nitrophenyl)sulfonyl)-[1,1′-biphenyl]-4-carboxamide] |  |  |  | 6090 nM | 59 nM
13 | O=C(NS(=O)(=O)c1ccc(N2CC3(CCOCC3)C2)c([N+](=O)[O-])c1)c1ccc(-c2ccc(N3CCCC3c3ccccc3Cl)cc2)cc1Oc1cnc2[nH]ccc2c1 (stereo not drawn) [Example G7, 3-((1H-pyrrolo[2,3-b]pyridin-5-yl)oxy)-4′-(2-(2-chlorophenyl)pyrrolidin-1-yl)-N-((3-nitro-4-(7-oxa-2-azaspiro[3.5]nonan-2-yl)phenyl)sulfonyl)-[1,1′-biphenyl]-4-carboxamide] |  |  |  | > 10000 nM | 3850 nM
